Laboratory results reported in article PMC4336329 (PLoS ONE, 2015).
In all, about 310,000 compounds went through this assay and about 14,000 (4.5%) showed an effect of 50% or more. The effect is printed as a negative number. This is one part of the list.
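Note: peak tail current of the secondary pulse compared with the same well before compound.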

These compounds were tested against human ether-à-go-go-related gene (hERG) potassium channel (human, UniProt Q12809) (assay: primary screen, population patch clamp on CHO cells stably expressing hERG).
human ether-à-go-go-related gene (hERG) potassium channel, sequence (Q12809 whole entry, looked up): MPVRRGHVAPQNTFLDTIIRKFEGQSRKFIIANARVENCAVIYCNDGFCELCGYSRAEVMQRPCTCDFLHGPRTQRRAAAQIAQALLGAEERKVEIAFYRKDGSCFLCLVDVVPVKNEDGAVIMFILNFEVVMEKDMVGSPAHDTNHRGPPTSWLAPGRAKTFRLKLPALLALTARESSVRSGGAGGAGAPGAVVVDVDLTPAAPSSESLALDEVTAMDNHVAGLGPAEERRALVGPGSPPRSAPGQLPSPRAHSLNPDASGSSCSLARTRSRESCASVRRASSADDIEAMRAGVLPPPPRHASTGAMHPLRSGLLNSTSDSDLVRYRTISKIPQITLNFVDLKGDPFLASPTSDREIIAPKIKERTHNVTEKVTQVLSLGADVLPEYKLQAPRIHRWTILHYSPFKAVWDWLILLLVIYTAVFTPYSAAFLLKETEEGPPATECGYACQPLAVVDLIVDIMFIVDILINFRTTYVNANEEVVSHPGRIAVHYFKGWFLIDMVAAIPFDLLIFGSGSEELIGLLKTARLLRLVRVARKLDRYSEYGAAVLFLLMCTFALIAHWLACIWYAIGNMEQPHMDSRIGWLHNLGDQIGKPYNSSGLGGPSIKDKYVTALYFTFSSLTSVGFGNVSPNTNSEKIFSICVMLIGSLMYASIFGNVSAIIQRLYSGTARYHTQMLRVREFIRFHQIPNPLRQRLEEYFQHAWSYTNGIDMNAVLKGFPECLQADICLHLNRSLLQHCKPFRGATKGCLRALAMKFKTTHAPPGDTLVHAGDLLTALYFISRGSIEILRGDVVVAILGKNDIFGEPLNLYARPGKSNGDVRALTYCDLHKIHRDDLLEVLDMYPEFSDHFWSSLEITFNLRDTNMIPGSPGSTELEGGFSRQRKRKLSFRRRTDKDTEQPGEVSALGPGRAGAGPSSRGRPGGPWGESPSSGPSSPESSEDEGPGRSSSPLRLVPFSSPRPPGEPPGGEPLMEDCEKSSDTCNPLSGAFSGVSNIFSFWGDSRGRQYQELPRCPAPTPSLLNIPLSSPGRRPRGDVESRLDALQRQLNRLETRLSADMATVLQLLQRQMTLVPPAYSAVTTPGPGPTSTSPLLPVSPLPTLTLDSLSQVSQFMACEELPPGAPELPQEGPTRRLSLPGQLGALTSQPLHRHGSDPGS
`CC(C)=C(C#N)c1nc2ccccc2s1` was tested, and the “hERG current change (%, negative = inhibition) at 10uM” value was -9.82%. In the case of `COc1ccc(NC(=O)Cn2c(NCC(C)O)nc3ccccc32)cc1Cl` (centres unmarked), the “hERG current change (%, negative = inhibition) at 10uM” value is reported as 15.6%. In the case of `CN1CCN(CCCNC(=O)Nc2cccc3ccccc23)CC1`, the “hERG current change (%, negative = inhibition) at 10uM” value is reported as 1.38%. With `O=C(COc1ccc(S(=O)(=O)NC2CCCCC2)cc1)NC1CCCC1` the “hERG current change (%, negative = inhibition) at 10uM” value was -8.19%. With `COc1ccc(C(=O)OCC(=O)c2ccc(C)c(S(=O)(=O)N3CCOCC3)c2)cc1OC` the “hERG current change (%, negative = inhibition) at 10uM” value was -45.8%. `N#Cc1ccc(-c2nc3cc(Cl)ccc3c(=O)n2O)cc1` was tested, and the “hERG current change (%, negative = inhibition) at 10uM” value was 7.51%. With `CCOC(=O)c1c(-c2ccc(OC)cc2)oc2ccc(OCC(N)=O)cc12` the “hERG current change (%, negative = inhibition) at 10uM” value was 16%. In the case of `COc1ccc(C2CC3(CC(C)(C)NC(=S)N3)Oc3cc(O)cc(C)c32)cc1OC` (centres unmarked), the “hERG current change (%, negative = inhibition) at 10uM” value is reported as 17.1%. For `COc1ccc(NC(=O)CN(C)C(=O)c2ccccc2OC)cc1`, the “hERG current change (%, negative = inhibition) at 10uM” value was 18.4%. With `CCOc1ccc(OCC(=O)NCCc2nc3ccccc3[nH]2)cc1` the “hERG current change (%, negative = inhibition) at 10uM” value was -34.6%. `COc1ccc(C2c3ccc4ccccc4c3Oc3ncn(CCN4CCOCC4)c(=N)c32)cc1` (centres unmarked) was tested, and the “hERG current change (%, negative = inhibition) at 10uM” value was -74.1%. `Cc1c(C(=O)Nc2ccccc2)sc2ncn(CC(=O)N3CCCCC3)c(=O)c12` was tested, and the “hERG current change (%, negative = inhibition) at 10uM” value was -16%. For `CCOC(=O)N1CCN(C(=O)CSc2ccc(Cl)cc2)CC1`, the “hERG current change (%, negative = inhibition) at 10uM” value was -26.7%. In the case of `Nc1ccc(C2(c3ccc(N)cc3)C(=O)Nc3ccccc32)cc1`, the “hERG current change (%, negative = inhibition) at 10uM” value is reported as -0.0135%. With `COc1ccc(CNC(=O)CN(c2ccc(OC)cc2)S(=O)(=O)c2c(C)[nH]c(=O)[nH]c2=O)cc1` the “hERG current change (%, negative = inhibition) at 10uM” value was 17%. `O=C(Nc1ccccc1N1CCCC1)c1cccnc1Cl` was tested, and the “hERG current change (%, negative = inhibition) at 10uM” value was 4.72%. In the case of `C=CCOc1ccccc1CNc1ccc2[nH]c(=O)[nH]c2c1`, the “hERG current change (%, negative = inhibition) at 10uM” value is reported as -0.534%. `Cc1cc(/C=C2/SC(=O)N(CC(=O)N3CCOCC3)C2=O)c(C)n1-c1ccccc1F` was tested, and the “hERG current change (%, negative = inhibition) at 10uM” value was -3.42%. For `CCOC(=O)C1=C(CNC2CCCCC2)NC(=O)NC1c1cc(C)ccc1C` (centres unmarked), the “hERG current change (%, negative = inhibition) at 10uM” value was 8.55%. `COc1ccccc1NC(=O)Cn1nc(C)n2cccc2c1=O` was tested, and the “hERG current change (%, negative = inhibition) at 10uM” value was 11.4%. In the case of `COc1ccccc1CNC(=O)c1ccc(NS(C)(=O)=O)cc1`, the “hERG current change (%, negative = inhibition) at 10uM” value is reported as -10.6%. With `CCOc1cc(-c2nc(-c3ccc(C)nc3OCC)no2)cc(OCC)c1OCC` the “hERG current change (%, negative = inhibition) at 10uM” value was 17.7%. `CCc1ccc(C2c3[nH]c4ccccc4c3CCN2C(=O)CNC(N)=O)cc1` (centres unmarked) was tested, and the “hERG current change (%, negative = inhibition) at 10uM” value was -12.2%. `Cc1ccc(NS(=O)(=O)c2cccs2)c(C)c1` was tested, and the “hERG current change (%, negative = inhibition) at 10uM” value was -2.42%. For `O=C(CCC1CCN(Cc2ccccc2O)CC1)NC1CC1`, the “hERG current change (%, negative = inhibition) at 10uM” value was -23.7%. In the case of `COc1ccc(NS(=O)(=O)c2cccc(C(=O)NCC(c3ccco3)N3CCCCC3)c2)cc1` (centres unmarked), the “hERG current change (%, negative = inhibition) at 10uM” value is reported as -31.5%. `CSc1ncccc1C(=O)OCC(=O)NC1CCCC1` was tested, and the “hERG current change (%, negative = inhibition) at 10uM” value was 2.56%. In the case of `Cc1cc(C)cc(NC(=O)N2CCCN(c3c(Cl)cncc3Cl)CC2)c1`, the “hERG current change (%, negative = inhibition) at 10uM” value is reported as 17.4%. `CCN(CC)C(=O)CSc1nnc(-c2ccncc2)n1N` was tested, and the “hERG current change (%, negative = inhibition) at 10uM” value was 13.4%. For `Cc1cnc(C(=O)OCC(=O)NCc2cccc(Cl)c2)cn1`, the “hERG current change (%, negative = inhibition) at 10uM” value was 0.546%. In the case of `O=C(NC1CCCCC1)c1cc(C2CC2)on1`, the “hERG current change (%, negative = inhibition) at 10uM” value is reported as 12.4%. For `O=C(Nc1cccnc1Cl)C1c2ccccc2Oc2ccccc21`, the “hERG current change (%, negative = inhibition) at 10uM” value was -0.399%. With `Cc1ccc(S(=O)(=O)NCCSCc2ccccc2)cc1` the “hERG current change (%, negative = inhibition) at 10uM” value was -6.05%. `Cc1cc2ccccc2n2c(SCC(=O)Nc3ccc(S(=O)(=O)N4CCC(C)CC4)cc3)nnc12` was tested, and the “hERG current change (%, negative = inhibition) at 10uM” value was 13.3%. With `CCN(CC)CCNC(=O)/C(=C/c1cn(C)c2ccccc12)NC(=O)c1ccc(OC)c(OC)c1` the “hERG current change (%, negative = inhibition) at 10uM” value was 3.9%. With `CCOC(=O)N1CCN(C(=O)C2CCN(S(=O)(=O)c3ccc(OC)cc3)CC2)CC1` the “hERG current change (%, negative = inhibition) at 10uM” value was 9.63%. `CC(C)(CC(=O)O)CC(=O)Nc1ccc(Cl)c(Cl)c1` was tested, and the “hERG current change (%, negative = inhibition) at 10uM” value was 14.1%. With `CC(C)(C)c1nnc(NC(=O)c2cccs2)s1` the “hERG current change (%, negative = inhibition) at 10uM” value was 27.7%. `Cc1n[nH]c(=O)nc1N/N=C/c1ccc(O)c([N+](=O)[O-])c1` was tested, and the “hERG current change (%, negative = inhibition) at 10uM” value was -11.8%. For `Cc1cc(C)c(NC(=O)c2oc3ccccc3c2COc2ccccc2)c(C)c1`, the “hERG current change (%, negative = inhibition) at 10uM” value was 11.7%. For `N/C(=N\O)c1ccccc1-n1cccc1`, the “hERG current change (%, negative = inhibition) at 10uM” value was 25.7%. `O=c1[nH]c([N+](=O)[O-])nn1C(c1ccccc1)c1ccccc1` was tested, and the “hERG current change (%, negative = inhibition) at 10uM” value was -13.7%. In the case of `CC1(C)Cc2nc(Cl)c(C(N)=O)cc2CO1`, the “hERG current change (%, negative = inhibition) at 10uM” value is reported as -2.25%. With `O=C(O)COc1ccc(/C=C/C(=O)c2ccc(C3CCCCC3)cc2)cc1` the “hERG current change (%, negative = inhibition) at 10uM” value was 18.2%.
